Results published in the supplement of paper PMC12217912.
The list shows a part of the results. Sequences were assembled here from the parent chain. Values near 0.05 are background.

B1: TEV protease; numbered along this chain (parent)
chain: MGESLFKGPRDYNPISSSICHLTNESDGHTTSLYGIGFGPFIITNKHLFRRNNGTLVVQSLHGVFKVKDTTTLQQHLVDGRDMIIIRMPKDFPPFPQKLKFREPQREERICLVTTNFQTKSMSSMVSDTSCTFPSGDGIFWKHWIQTKDGQCGSPLVSTRDGFIVGIHSASNFTNTNNYFTSVPKNFMELLTNQEAQQWVSGWRLNADSVLWGGHKVFMVKPEEPFQPVKEATQL

Variants of: B1
Assay: raw area under fraction-flipped curve 0-4 h after induction (AUC4h, not background-subtracted), DNA-recorder readout of cleavage of the substrate (dimensionless); higher = more cleavage of the substrate by the protease variant
Details: temperature: 34 °C; time window: 0-4 h after rhamnose induction
Procedure: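 In vivo DNA recorder in E. coli TOP10(DE3) ΔrhaA at 34 °C. Each TEVp single-site mutant (parent TEVp 0) is paired with a single-site variant of the 7-mer TEVs (canonical ENLYFQ|S). The substrate sits between flexible linkers in a Bxb1-sfGFP-TEVs-SsrA fusion, so cleavage stabilises Bxb1 and speeds flipping of a recombination array, read by NGS. The value is the raw area under the fraction-flipped curve over 0-4 h after rhamnose induction (AUC4h), with ≥20 reads per time point. It is not background-subtracted; inactive controls average about 0.047.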
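Note: Bxb1 expression induced with 0.2% (w/v) L-rhamnose at OD600 near 0.5, cultures sampled hourly, flipped fraction per protease–substrate barcode pair counted by paired-end Illumina sequencing.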

Row | Variant | area with substrate ENLYDQS | area with substrate ENLYEQS | area with substrate ENLYGQS | area with substrate ENLYHQS | area with substrate ENLYIQS | area with substrate ENLYKQS | area with substrate ENLYMQS | area with substrate ENLYNQS | area with substrate ENLYPQS | area with substrate ENLYQQS | area with substrate ENLYRQS | area with substrate ENLYVQS | area with substrate ENLYWQS | area with substrate ENLYLQS | area with substrate ENLYSQS | area with substrate ENLYTQS | area with substrate ENLYYQS
1 | Q227W | 0.0677 | 0.0628 | 0.0793 | 0.0631 | 0.13 | 0.0583 | 0.0711 | 0.0283 | 0.099 | 0.0793 | 0.054 | 0.0473 | 0.0805 | – | – | – | –
2 | I43H | – | 0.0464 | 0.0524 | 0.0482 | 0.0521 | 0.0358 | 0.0359 | 0.0433 | 0.0425 | 0.0471 | 0.0369 | 0.0429 | 0.0382 | 0.0455 | 0.0364 | 0.0475 | –
3 | N177C | 0.0752 | 0.0696 | 0.0744 | 0.0728 | 0.128 | – | – | 0.0697 | 0.131 | – | – | 0.131 | – | – | 0.0799 | – | 0.0421
4 | Q75W | 0.0497 | 0.0556 | 0.0642 | 0.0611 | – | 0.057 | 0.0477 | 0.0595 | 0.0496 | – | 0.0612 | 0.0591 | 0.0568 | 0.0819 | 0.0554 | – | 0.042
5 | Q146V | 0.0587 | 0.0719 | – | 0.0812 | – | – | 0.0805 | – | – | – | – | 0.114 | 0.072 | – | 0.0757 | 0.0866 | –
6 | N53Q | 0.0547 | 0.0683 | 0.0668 | 0.0623 | 0.118 | 0.0128 | 0.0814 | 0.0638 | – | – | 0.0635 | 0.0792 | 0.0665 | – | – | – | 0.0613
7 | N53D | 0.0594 | – | 0.0727 | 0.0636 | 0.136 | 0.0596 | 0.104 | 0.0742 | 0.0724 | 0.0667 | 0.0575 | 0.0942 | 0.0719 | 0.0912 | 0.0577 | – | 0.0766
8 | F140V | 0.0596 | 0.0612 | 0.0549 | 0.0618 | 0.0896 | 0.0608 | 0.0625 | 0.0577 | 0.0491 | 0.0626 | 0.0688 | 0.063 | 0.0608 | 0.0626 | – | 0.0696 | 0.0569
9 | F140L | 0.0554 | 0.0621 | 0.0548 | 0.0559 | 0.0849 | 0.063 | 0.0821 | – | – | – | 0.0625 | 0.0962 | 0.065 | – | – | 0.0793 | –
10 | G202R | 0.0737 | – | 0.0211 | 0.0713 | – | 0.0725 | 0.0632 | 0.0596 | – | 0.0554 | – | 0.0753 | 0.0495 | – | 0.0583 | – | –
11 | S209D | – | 0.0711 | – | 0.0569 | – | – | 0.0716 | 0.0541 | 0.0688 | – | – | – | 0.0681 | – | 0.0802 | – | –
12 | S158N | 0.0534 | 0.0543 | 0.0438 | 0.0585 | 0.0876 | – | 0.0628 | 0.0609 | – | – | – | 0.0995 | 0.0782 | – | – | – | –
13 | L99Q | 0.0568 | 0.0593 | 0.0485 | 0.0851 | – | – | 0.0543 | – | – | – | – | 0.11 | – | – | 0.0652 | – | –
14 | I167R | 0.0536 | 0.0343 | 0.059 | 0.0516 | 0.0305 | 0.0576 | – | 0.05 | – | 0.0394 | 0.0435 | – | – | 0.0592 | 0.0364 | – | –
15 | A196W | 0.0426 | 0.0484 | – | – | – | 0.0583 | – | 0.0551 | – | 0.0714 | 0.0772 | – | 0.0556 | – | 0.0631 | – | 0.0438
16 | T129L | – | 0.0673 | 0.0779 | 0.072 | 0.111 | 0.0566 | 0.0524 | 0.0748 | 0.0801 | – | 0.0573 | 0.133 | 0.0536 | – | – | – | –
17 | H29T | 0.0544 | 0.0636 | 0.0673 | 0.0634 | 0.0814 | – | 0.0875 | – | 0.0917 | 0.0667 | 0.07 | 0.111 | – | 0.102 | – | 0.082 | 0.0667
18 | H29I | – | 0.0895 | 0.0677 | 0.0668 | 0.12 | 0.0804 | 0.0838 | 0.0711 | – | – | – | – | 0.0717 | – | – | 0.0886 | –
19 | M219T | 0.0624 | 0.0644 | 0.0725 | 0.0347 | – | 0.0541 | 0.0935 | 0.0819 | 0.0642 | – | – | 0.075 | – | 0.078 | – | – | –
20 | F133P | 0.0652 | 0.061 | 0.0632 | 0.0497 | 0.0825 | 0.0242 | 0.0593 | 0.0658 | 0.0473 | 0.0685 | 0.0531 | 0.0724 | 0.068 | 0.0649 | – | – | 0.0462
21 | G162D | 0.0605 | 0.0668 | 0.0662 | – | – | 0.0654 | 0.0831 | – | 0.0717 | 0.0526 | 0.0585 | 0.061 | – | – | – | – | 0.0727
22 | G162F | 0.07 | 0.0312 | 0.062 | 0.06 | – | 0.071 | 0.076 | 0.0501 | – | 0.064 | – | – | 0.0777 | 0.0618 | – | 0.0638 | 0.0539
23 | R109L | 0.0636 | – | 0.0746 | 0.0739 | 0.0782 | 0.0578 | – | – | 0.0803 | 0.0697 | 0.0598 | 0.151 | 0.0888 | 0.0809 | 0.0661 | 0.083 | –
24 | F218N | 0.0649 | 0.0584 | – | 0.0701 | 0.0936 | – | – | – | 0.077 | 0.0585 | 0.0699 | 0.0915 | 0.0628 | – | – | – | –
25 | S26Q | 0.0675 | 0.076 | 0.0663 | 0.0694 | 0.113 | 0.0343 | 0.0922 | 0.058 | 0.0631 | – | – | 0.103 | 0.0799 | – | – | 0.0616 | –
26 | S26R | 0.0607 | 0.0878 | 0.0544 | 0.0602 | 0.0902 | 0.036 | 0.0613 | 0.0572 | 0.045 | 0.0663 | 0.0463 | 0.0717 | 0.0698 | – | 0.063 | – | 0.0488
27 | K90H | 0.0397 | 0.069 | 0.0594 | 0.0713 | 0.112 | 0.0737 | 0.0502 | 0.0641 | 0.056 | 0.0648 | 0.0489 | 0.154 | 0.0661 | 0.0867 | 0.0593 | 0.0834 | 0.0777
28 | I145V | 0.0844 | 0.074 | – | 0.0755 | – | 0.04 | 0.107 | 0.0693 | 0.0487 | – | 0.0583 | 0.148 | 0.0932 | – | – | – | 0.0606
29 | T181F | 0.0566 | 0.0558 | – | 0.0627 | 0.062 | 0.0582 | – | 0.0631 | – | 0.0571 | 0.0617 | 0.0492 | – | 0.0613 | 0.0988 | 0.0568 | 0.0448
